Reference: US20260015416A1, “TREATMENT OF DRUG-RESISTANT HEPATOCELLULAR CARCINOMA” (Alentis Therapeutics AG, priority 2022, published 2026)

Legend:
[1] = test system: HCC patient-derived spheroids (primary HCC tumorspheres); experiment: Microscopy of HCC patient-derived tumor spheroids (architecture); type: cell-based, human; conditions: 10 μg/mL mAb, day 6 post-treatment, vs control mAb; FIG. 1A
Description: Scale bars 200 μm. FIG. 1B depicts graphs showing relative cell viability after 6 days of treatment with anti-Claudin-1 mAb “H3L3” (Table 1) or sorafenib compared to control mAb treated spheroids (n=3 replicates per condition, p=0.003 and p=0.04, Student's t-test). Bars show mean±SEM. *p<0.05, **p<0.01, ***p<0.001, **** p<0.0001. FIG. 1C depicts a heatmap showing cell viability of tumor spheroids (n=15 donors) were treated with anti-Claudin-1 mAb “H3L3”, control Ab, sorafenib or nivolumab. Heatmaps illustrate % cell viability compared to control mAb treated cells on day 6 using ATP quantification (n=15 different donors with at least duplicates per condition). Donors (# ST1, # S06, # S15, # S16, # S17, # S18, # R2, # R21, # R24, # R11, # 381, # S19, # S22, # S349, # S394). […]
(§1) Tumorspheres were treated for 6 days with 10 μg/mL isotype control mAb, with 10 μg/mL anti-Claudin-1 mAb “H3L3” (Table 1), with sorafenib (10 μM, Selleckchem) or with Nivolumab (10 μg/mL, Selleckchem) with at least duplicates per condition. Tumorsphere viability was assessed at day 6 using CellTiterGlo 3D (Promega) according to the manufacturer's instructions.

[2] = test system: HCC patient-derived spheroids (primary HCC tumorspheres); experiment: HCC patient-derived spheroid viability (CellTiterGlo 3D, ATP quantification); type: cell-based, human
Source text: Fragments of tumor tissue (5×5 mm to 8×8 mm size) were excised from tumor mass of HCC patients (n=15 different donors, Table 2) and then processed with enzymatic and mechanical dissociation to generate clusters of tumor cells similarly as described recently (Crouchet E, et al., Nat Commun 2021; 12:5525; Jühling F, et al., Gut 2021; 70:157-69). Aggregates of cells were assembled into spheroids in 96-well Black/Clear Bottom Low Flange Ultra-Low Attachment Microplates (Corning) and cultured in MammoCult basal medium (STEMCELL Technologies), supplemented with human proliferation supplement (3.4%), hydrocortisone (0.056%), heparin (0.011%) and 50% patients' own serum.
as §1

B1: H3L3: humanized anti-Claudin-1 monoclonal antibody; heavy chain SEQ ID NO: 11, light chain SEQ ID NO: 12 (VH SEQ 13, VL SEQ 14) (antibody)
heavy: QVQLVESGGGVVQPGRSLRLSCLGSGFSFSSYGMNWVRQAPGKGLEWVASISPSGSYFYYADSVKGRFTISRDNSKNTLYLQMTSLRAEDTAIYYCARLPGFNPPFDHWGQGTLVTVSSASTKGPSVFPLAPSSKSTSGGTAALGCLVKDYFPEPVTVSWNSGALTSGVHTFPAVLQSSGLYSLSSVVTVPSSSLGTQTYICNVNHKPSNTKVDKRV[sequence of human IgG1 Fc not given]
light: DIQMTQSPSSLSASVGDRVTITCKASQNVGGNVDWYQWKPGKAPKLLIYGASNRYTGVPDRFRGSGSGTDFTLTISSLQPEDVATYYCLQYKNNPWTFGGGTKVEIKRTVAAPSVFIFPPSDEQLKSGTASVVCLLNNFYPREAKVQWKVDNALQSGNSQESVTEQDSKDSTYSLSSTLTLSKADYEKHKVYACEVTHQGLSSPVTKSFNRGEC
effect on architecture of HCC spheroids [1]: markedly disrupted the architecture of HCC spheroids | effect on sorafenib-resistant HCC spheroid cell viability ([2]; 10 μg/mL, 6 days of treatment, vs control mAb treated spheroids, n=3 replicates, p=0.003 and p=0.04, Student's t-test, FIG. 1B): pronounced effect | response rate (defined as a mean decrease in cell viability of >15%) ([2]; HCC spheroids from 15 different HCC patients, 6 days, H3L3 10 μg/mL, sorafenib 10 μM, nivolumab 10 μg/mL, vs control mAb, FIG. 1C): 47% | effect on HCC growth including sorafenib- and nivolumab-resistant tumors ([2]; overall conclusion from the patient-derived spheroid data): strong suppressive effects
